# Source: PubChem BioAssay AID686978 (National Center for Advancing Translational Sciences (NCATS), 2013)
# Among all 420,000 compounds or so, about 64,000 (15%) were called active. Inconclusive results, whose numbers are uncertain, are shown with a selection of clear calls. The call rests on the fitted dose curve; in most records, active means well fitted inhibition curve with a large enough effect; inconclusive means small, poorly fitted or top-dose-only effect; inactive means flat fitted curve, though single readings scatter. Potencies of inconclusive entries are left out as doubtful fits.
# Assay: qHTS for Inhibitors of human tyrosyl-DNA phosphodiesterase 1 (TDP1): qHTS in cells in absence of CPT; further: nearly all actives have a fitted effect of over 55% in size
# Details: DT40 Tdp1-/- hTDP1 cells, no CPT, ATP luminescence, 48 h; series mostly up to 46.2 µM
# How it was run: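 Growth kinetics read by CellTiter-Glo luminescence after ≥48 hr at 37 °C. Cells: DT40 Tdp1-/- stably carrying human TDP1, 400 per well, compound exposure in the absence of CPT (DMSO vehicle).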
# Potency means the concentration at half of the fitted maximal effect; tags describe the fitted curve by direction and shape.
row,SMILES,Potency
1,O=[N+]([O-])/C(C(Cl)=C(Cl)Cl)=C(\Sc1ccccc1)N1CCCCC1,active: 23.1 µM
2,O=C(NCCN1C(=O)S/C(=C\c2ccc(Cl)c(Cl)c2)C1=O)C1COc2ccccc2O1 (stereo not drawn),"inconclusive [inhibitor, single point]"
3,CN(CCOC(=O)c1cccc(Br)c1)C(C)(C)C,"inconclusive [inhibitor, partial curve, poor fit]"
4,Cc1ccc(S(=O)(=O)N2CCCC2)cc1C(=O)N1CCN(Cc2ccccc2)CC1,"inconclusive [inhibitor, single point]"
5,O=C(COc1cccc2cccnc12)Nc1ccccc1,inactive
6,CCOC(=O)[C@]12CCC=C1N(Cc1ccc3c(c1)OCO3)C(=O)[C@H](CC(=O)N1CCCCC1)C2,"inconclusive [inhibitor, single point]"
7,C=CCn1c(C)cc(C(=O)CSc2ccc(NC(C)=O)cc2)c1C,"inconclusive [inhibitor, single point]"
8,CCn1c(=O)n(CCc2ccccc2)c(=O)c2c3c(sc21)CCCC3,"inconclusive [inhibitor, full curve]"
9,COCC(C)N1CCC(Oc2ccc(C(=O)N3CCCC3)cc2)CC1 (stereo not drawn),inactive
10,COc1ccccc1-n1cc(C(=O)NCCN2Cc3ccccc3OC(c3ccsc3)C2)cn1 (stereo not drawn),inactive
11,COc1ccc(C)cc1NC(=O)C(=O)NNC(=O)COc1ccc(Cl)cc1,active: 23.1 µM
12,CCOc1ccc(OCC)c(NC(=O)C(NS(=O)(=O)c2ccc3c(c2)oc(=O)n3C)C(C)C)c1 (stereo not drawn),inactive
13,COC(=O)C1C2C=CC3(CN(CCc4ccccc4)C(=O)C13)O2 (stereo not drawn),inactive
14,Cc1nn(Cc2ccc(Cl)cc2)c(=O)n1N(C)c1ncc(C(F)(F)F)cc1Cl,active: 20.6 µM
15,Cc1ccc(OCC(=O)Nc2ccc(S(=O)(=O)Nc3ccccn3)cc2)cc1C,"inconclusive [inhibitor, single point]"
16,COc1cccc(CNC(=O)[C@@H]2CCCN2C(=O)[C@H]2CCCCN2C(=O)c2cccc(OC)c2)c1,inactive
17,Cc1cc(SCC(=O)N2CCC(c3noc4ccc(F)cc34)CC2)nc2ccccc12,"inconclusive [inhibitor, partial curve]"
18,COc1ccccc1-c1ccnc(-n2ncc(C(=O)NCCc3ccncc3)c2C)n1,inactive
19,Cc1cc(C(=O)C(C)OC(=O)c2ccc(NC(=O)CC#N)cc2)c(C)n1-c1ccc(OC(F)F)cc1 (stereo not drawn),active: 11.6 µM
20,C[C@H](CO)N1C[C@H](C)[C@@H](CN(C)S(=O)(=O)c2cccc(F)c2)Oc2ncc(Br)cc2C1=O,"inconclusive [inhibitor, partial curve]"
21,CC(C)(C)NC(=O)CN(C(=O)CCN1CCCc2ccccc21)C(C)(C)C,"inconclusive [inhibitor, single point]"
22,O=C(CN(C(=O)CSc1nnc(COc2ccccc2)o1)c1ccc(F)cc1)NC1CCCCC1,"inconclusive [inhibitor, single point]"
23,Clc1cccc(Cl)c1CSc1nnc(/C=C/c2ccccc2)o1,"inconclusive [inhibitor, single point]"
24,CCOC(=O)c1[nH]c(C)c(C(=O)OCC(=O)NCc2ccc(OC)c(OC)c2)c1C,"inconclusive [inhibitor, single point]"
25,O=C1C(Nc2ccccc2)=CC(c2ccc(Br)cc2)N1c1ccccc1 (stereo not drawn),inactive

row,SMILES,Potency
1,CC(/C=N/NC(=O)c1ccc(Br)cc1)=C\c1ccccc1,inactive
2,CCc1ccc(C2C(C#N)=C(N)C(C#N)(C#N)C3=CCC(C(C)(C)C)CC32)cc1 (stereo not drawn),active: 14.6 µM
3,COc1ccc(-n2ccc(=O)c(C(=O)O)n2)cc1,inactive
4,COc1cccc(C(=O)Nc2ccc(-c3nc4ccccc4o3)c(O)c2)c1,active: 16.4 µM
5,CC[C@H]1OC(=O)[C@H](C)[C@@H](O[C@H]2C[C@@](C)(OC)[C@@H](O)[C@H](C)O2)[C@H](C)[C@@H](O[C@@H]2O[C@H](C)C[C@H](N(C)C)[C@H]2O)[C@](C)(O)C[C@@H](C)[C@@H]2N[C@@H](COCCOC)O[C@@H]([C@H]2C)[C@]1(C)O,inactive
6,COc1cccc(-c2nc(NC(C)C)c3ccccc3n2)c1O,active: 20.6 µM
7,CCCCCCCC1CC(CSC(=N)N)OC1=O (stereo not drawn),active: 20.6 µM
8,COc1ccc(NS(=O)(=O)c2cccc(C(=O)NNC(=O)CNC(=O)c3ccccc3Cl)c2)cc1,inactive
9,Clc1cccc(Cl)c1-c1noc(CN2CCOCC2)n1,inactive
10,O=S(=O)(c1cccc(-c2csc(-c3cccnc3)n2)c1)N1CCCCC1,"inconclusive [inhibitor, single point]"
11,C/C(=C\C(=O)c1ccc(Br)cc1)NCc1ccccc1,inactive
12,COc1ccc(N2CCN(C(CNC(=O)C(=O)NCCc3ccccc3)c3cccnc3)CC2)cc1 (stereo not drawn),active: 16.4 µM
13,N#CCC(=O)N/N=C/c1cc(-c2ccccc2)n(-c2ccc(Cl)cc2)c1-c1ccccc1,"inconclusive [inhibitor, single point]"
14,O=[N+]([O-])c1ccc(C(O)CN2CCN(C/C=C/c3ccccc3)CC2)cc1 (stereo not drawn),active: 29.1 µM
15,Cn1c2ccccc2c2nnc(SCC(=O)Nc3ccccc3F)nc21,"inconclusive [inhibitor, single point]"
16,O=C(Nc1nc2ccc(S(=O)(=O)N3CCCC3)cc2s1)C1CCCO1 (stereo not drawn),inactive
17,Cc1ccc(CCNC(=O)NCc2noc3ccccc23)cc1,"inconclusive [inhibitor, partial curve]"
18,O=C(Nc1nc2ccccc2n1CCN1CCOCC1)c1ccc(COc2ccccc2Br)o1,"inconclusive [inhibitor, single point]"
19,Cc1ccc(CN2CCC(CNC(=O)Nc3cccc(Cl)c3C)C2)cc1 (stereo not drawn),"inconclusive [inhibitor, single point]"
20,Cc1ccccc1C1N(c2nccs2)C(=O)C2CCCN21 (stereo not drawn),inactive
21,C#CCCCCCCCCCCCC(O)CC(O)CO (stereo not drawn),"inconclusive [inhibitor, single point]"
22,COC(=O)[C@@H]1C(c2c(OC)cc(OC)cc2OC)=NO[C@H]1C(=O)OC,inactive
23,O=C(NC1CCCCC1)C12CC3CC(CC(Cl)(C3)C1)C2,"inconclusive [inhibitor, single point]"
24,O=C(NCc1ccccc1)c1ccc2nc(CCc3ccccc3)oc2c1,"inconclusive [inhibitor, single point]"
25,Cc1ccc(N(C(=O)c2ccccc2Cl)C2=NC(C)CS2)c(C)c1 (stereo not drawn),active: 18.4 µM

row,SMILES,Potency
1,CCCCNC(=O)CN1C(=O)NC2(CCCc3ccccc32)C1=O (stereo not drawn),inactive
2,COc1cc(-c2nnc(SCC3(c4ccccc4)OCCO3)o2)cc(OC)c1OC,"inconclusive [inhibitor, partial curve]"
3,CC(C)C[C@@H]1Cc2[nH]c(=S)[nH]c(=O)c2[C@H](CCc2ccccc2)O1,"inconclusive [inhibitor, single point]"
4,CC1=NN(C(N)=S)C(=O)C1N=Nc1c(Cl)cc([N+](=O)[O-])cc1Cl (stereo not drawn),active: 16.4 µM
5,COc1ccc(C)cc1NC(=O)NCc1cccn1Cc1ccccc1,"inconclusive [inhibitor, single point]"
6,COC(=O)c1ncn(C2OC(COC(C)=O)C(OC(C)=O)C2OC(C)=O)n1 (stereo not drawn),inactive
7,CC(C)n1nnnc1C1c2ccccc2C(=O)N1Cc1ccc(F)cc1 (stereo not drawn),"inconclusive [inhibitor, single point]"
8,Cn1c(CNC(=O)c2ccco2)nnc1SCC(=O)Nc1ccc(Cl)cc1,inactive
9,Cc1c(CNC2CCCCCC2)c(C(=O)O)c(C)n1Cc1ccc(F)cc1Cl,"inconclusive [inhibitor, single point]"
10,CC(=O)NC(CC(=O)NCCN1C(=O)S/C(=C\c2ccccc2)C1=O)c1ccccc1 (stereo not drawn),"inconclusive [inhibitor, partial curve]"
11,CN=C1NN=C(c2cc(C)n(-c3ccc(Cl)cc3)c2C)CS1,"inconclusive [inhibitor, single point]"
12,O=C(N/N=C/c1cc(Br)ccc1O)C(c1ccncc1)N1CCOCC1 (stereo not drawn),active: 8.2 µM
13,Cc1ccccc1S(=O)(=O)Cc1ccc(C(=O)N(C)C2CCCCC2)o1,"inconclusive [inhibitor, single point]"
14,O=C(NCC(c1ccco1)N1CCc2ccccc21)c1cccc(F)c1 (stereo not drawn),active: 11.6 µM
15,Cc1ccc(CN(C(=O)c2ccc([N+](=O)[O-])cc2)C2CCS(=O)(=O)C2)o1 (stereo not drawn),"inconclusive [inhibitor, single point]"
16,COCCN(C(=O)CCl)C(C(=O)NC1CCCCC1)c1ccccc1C (stereo not drawn),active: 2.06 µM
17,COc1ccc(C)cc1NC(=O)CSc1nc2ccccc2nc1N1CCOCC1,active: 23.1 µM
18,COc1ccc(NC(=O)CN(C)C(=O)c2oc3ccccc3c2C)cc1,inactive
19,COc1cc(OC)cc(-c2nc(-c3cccc(C)c3)no2)c1,"inconclusive [inhibitor, partial curve]"
20,CCN1CCN(Cc2nc3c(c(=O)n(C)c(=O)n3C)n2CC(=O)c2ccccc2)CC1,inactive
21,COC(=O)CSc1nnc(-c2ccccn2)n1N,inactive
22,COc1ccc(-c2nc3ccc(Cl)cn3c2Cc2ccc(C)cc2)cc1OC,"inconclusive [inhibitor, single point]"
23,O=C(NCc1ccco1)NC12CC3CC(CC(C3)C1)C2,"inconclusive [inhibitor, single point]"
